# Laboratory results published in PubChem BioAssay AID1460 (National Center for Advancing Translational Sciences (NCATS), 2008).
# The campaign covered roughly 270,000 compounds. About 5,800 (2.1%) were called active. This list was built around the results that the source calls inconclusive (neither active nor inactive); the mix of calls is not that of the screen. The call rests on the fitted dose curve; in most records, active means well fitted inhibition curve with a large enough effect; inconclusive means small, poorly fitted or top-dose-only effect; inactive means flat fitted curve, though single readings scatter. Where the call is inconclusive, the potency comes from a doubtful curve fit.
# Molecular target: Microtubule-associated protein tau (Homo sapiens) (UniProt P10636)
# Sequence of UniProt P10636 (P10636 whole entry, looked up): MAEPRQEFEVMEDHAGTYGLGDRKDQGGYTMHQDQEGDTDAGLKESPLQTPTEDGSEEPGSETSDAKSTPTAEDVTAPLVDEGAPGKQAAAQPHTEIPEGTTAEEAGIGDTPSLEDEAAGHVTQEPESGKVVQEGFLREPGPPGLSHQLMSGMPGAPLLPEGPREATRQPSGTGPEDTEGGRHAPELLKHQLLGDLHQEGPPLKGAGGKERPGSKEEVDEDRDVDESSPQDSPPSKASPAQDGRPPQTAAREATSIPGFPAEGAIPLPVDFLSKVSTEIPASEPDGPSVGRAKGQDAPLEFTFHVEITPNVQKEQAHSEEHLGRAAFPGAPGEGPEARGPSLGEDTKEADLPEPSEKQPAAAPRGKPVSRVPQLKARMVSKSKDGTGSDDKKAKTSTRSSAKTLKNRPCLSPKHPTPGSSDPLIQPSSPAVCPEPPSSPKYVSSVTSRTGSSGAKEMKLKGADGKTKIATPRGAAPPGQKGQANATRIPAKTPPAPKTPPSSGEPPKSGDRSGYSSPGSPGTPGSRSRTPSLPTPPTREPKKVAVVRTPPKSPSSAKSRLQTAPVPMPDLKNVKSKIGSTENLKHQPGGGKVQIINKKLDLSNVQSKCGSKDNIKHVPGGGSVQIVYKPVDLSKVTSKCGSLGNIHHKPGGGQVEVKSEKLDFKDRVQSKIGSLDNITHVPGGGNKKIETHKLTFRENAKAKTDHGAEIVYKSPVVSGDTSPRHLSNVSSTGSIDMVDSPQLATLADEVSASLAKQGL
# Assay: qHTS for Inhibitors of Tau Fibril Formation, Thioflavin T Binding; further: nearly all actives have a fitted effect of over 55% in size
# Conditions: recombinant tau K18 P301L (four-repeat tau fragment), heparin-induced fibrillization, ThT fluorescence; series mostly up to 57.4 µM; activity, negative = inhibition: at the top concentration
# How it was run: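 In this qHTS, human K18 P301L tau is incubated with compound and heparin for 6 hr at 37 C, and Thioflavin T fluorescence then reports fibril load.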
# On the % scale 0 is the no-effect control and ±100 the full control effect; potency means the concentration at half of the fitted maximal effect; tags describe the fitted curve by direction and shape.
SMILES,Potency,"activity, negative = inhibition"
Cc1ccc(N(CC(=O)N2CCN(c3ccccc3)CC2)S(=O)(=O)c2c(C)noc2C)cc1,"inconclusive: 44.7 µM [inhibitor, single point]",–
C=CCc1ccc(OCCCOc2ccc(C(=O)O)cc2)c(OC)c1,–,inactive: -2.73%
Cc1cc(C(=O)CSc2nn3c(=O)c(C(C)(C)C)nnc3s2)c(C)n1C1CC1,"inconclusive: 11.2 µM [inhibitor, partial curve, poor fit]",–
CC(=O)Nc1ccc(NC(=O)/C=C/c2ccc3c(c2)OCO3)cc1,"inconclusive: 4.47 µM [inhibitor, full curve]",–
COC(=O)c1c(OC)cc2c(c1C)Oc1c(Cl)c(OC(C)=O)c(Cl)c(C)c1C(=O)O2,"inconclusive: 28.2 µM [inhibitor, single point]",–
CNC(=S)N=Nc1c(O)[nH]c2ccccc12,"inconclusive: 14.1 µM [inhibitor, partial curve]",–
O=[N+]([O-])c1cccc(-c2ncc3ccccn23)c1,"inconclusive: 10 µM [inhibitor, partial curve]",–
O=C(Nc1cccc(O)c1)c1ccc(C(F)(F)F)cc1,"inconclusive: 25.1 µM [inhibitor, partial curve]",–
CN(C)S(=O)(=O)c1ccc(C(=O)Nc2nc3ccccc3[nH]2)cc1,–,inactive: 5.04%
O=C(O)CSc1nc(-c2ccc(Cl)cc2)nc2c1oc1ccccc12,"inconclusive: 28.2 µM [activator, partial curve]",–
N#C/C(=C\c1ccc(-c2ccc(S(=O)(=O)N3CCOCC3)cc2)o1)C(=O)NC1CC1,"inconclusive: 39.8 µM [inhibitor, single point]",–
Cc1ccc(-c2ccc(/C=C3\SC(N4CCOCC4)=NC3=O)o2)cc1,active: 12.6 µM,–
CCOc1ccccc1NS(=O)(=O)c1ccc(N2CCCCS2(=O)=O)cc1,–,inactive: 5.08%
CCc1cc(C(=O)OC)c(NC(=O)CCC(=O)O)s1,–,inactive: 5.52%
O=C(NNc1cccc(Cl)n1)Nc1cccc(C(F)(F)F)c1,–,inactive: -2.71%
Cc1ccc(C(=O)Nc2nccc(-c3cccs3)n2)cc1,–,inactive: -21.3%
N#Cc1ccsc1NC(=O)COC(=O)CCCSc1nc2ccccc2s1,"inconclusive: 12.6 µM [inhibitor, partial curve]",–
O=C(Cn1nc2ccccc2n1)N/N=C/c1cc(Cl)cc([N+](=O)[O-])c1O,active: 12.6 µM,–
O=C(c1cccn2c(=O)c3cc4ccccc4cc3nc12)N1CCN(c2ccccc2)CC1,"inconclusive: 20 µM [inhibitor, partial curve, poor fit]",–
CCN(c1ccccc1)S(=O)(=O)c1nnc(NC(=O)C2CCCCC2)s1,active: 3.55 µM,–
COc1ccc2c(c1)c(N1CCCC1=O)c(C(=O)Nc1cc(C)c(Cl)cc1OC)n2C,"inconclusive: 39.8 µM [inhibitor, single point]",–
CCn1c(=O)c2sccc2n2c(CCC(=O)Nc3ccc(F)cc3)nnc12,–,inactive: -6.52%
CNC(=S)N/N=C/c1cc(C)n(-c2ccc(Cl)c(Cl)c2)c1C,"inconclusive: 22.4 µM [inhibitor, single point]",–
CC(=O)c1cccc(NC(=O)C(OC(=O)c2ccccc2NS(=O)(=O)c2cccs2)c2ccccc2)c1 (centres undefined),–,inactive: 13.4%
Cc1ccc2c(C)c(C(=O)N(Cc3ccc(N(C)C)cc3)Cc3ccco3)oc2c1C,"inconclusive: 7.08 µM [inhibitor, partial curve]",–

SMILES,Potency,"activity, negative = inhibition"
Cc1ccc(/C=C/C(=O)NCc2ccc3c(c2)OCO3)o1,–,inactive: -7.37%
O=C(Nc1ccc(Br)cc1)c1cc(S(=O)(=O)NC2CCCC2)ccc1F,–,inactive: 6.76%
Cc1ccc(N2C(=O)c3cccc4c(N)ccc(c34)C2=O)c2cccnc12,–,inactive: 0.912%
CCOc1ccc(N(CC(=O)Nc2ccc(OC)cc2)S(=O)(=O)c2ccc(Cl)cc2)cc1,–,inactive: 9.2%
COC(=O)CCNc1ccc2c(c1)OCCO2,–,inactive: -10.3%
CC(C)Oc1ccc(C(=O)NCC(c2ccc(N(C)C)cc2)N2CCc3ccccc32)cc1 (centres undefined),"inconclusive: 12.6 µM [inhibitor, partial curve]",–
O=C(Nc1cc(S(=O)(=O)N2CCOCC2)ccc1O)c1ccc(NS(=O)(=O)c2ccc(Cl)s2)cc1,"inconclusive: 31.6 µM [inhibitor, partial curve]",–
COc1ccc(CCN2C(=O)C(O)=C(C(C)=O)C2c2ccccc2OC)cc1OC (centres undefined),–,inactive: -18.7%
Cc1ccc(-c2noc(-c3nnn(CC(=O)Nc4ccc(C)c(Cl)c4)c3N)n2)cc1,–,inactive: 7.87%
CCOC(=O)c1[nH]c2c(c1Cc1ccccc1)C(=O)CC(c1ccccc1)C2 (centres undefined),–,inactive: -5.74%
COC(=O)c1c(NC(=O)COC(=O)Cn2cnc3ccccc32)sc2c1CCCC2,–,inactive: -11.3%
O=C1NC(c2ccccc2)=C(c2ccc3ccccc3n2)C(c2ccncc2)N1 (centres undefined),active: 11.2 µM,–
O=S(=O)(Nc1ccc(N2CCOCC2)cc1)c1ccccc1,–,inactive: -13.9%
CCOC(=O)C1=C(C)n2c(s/c(=C3\C(=O)Nc4ccccc43)c2=O)=NC1c1ccc(OC)cc1 (centres undefined),active: 15.8 µM,–
O=C(CSc1nnc(-c2ccccc2)o1)c1ccc2c(c1)OCCO2,–,inactive: -12.1%
COc1ccc(CNC(=O)CN2C(=O)CCn3nc(-c4cn(C)c5ccccc45)cc32)cc1,"inconclusive: 39.8 µM [inhibitor, single point]",–
O=[N+]([O-])c1ccc(NNC(=S)Nc2ccc(F)cc2)cc1,active: 12.6 µM,–
Cc1ccccc1-c1noc(CCC(=O)NCC2CCCO2)n1 (centres undefined),–,inactive: -13%
CCOC(=O)c1c(C)[nH]c(CCC(=O)NCc2cc(OC)c(OC)c(OC)c2)c1C,–,inactive: -0.427%
COCCCNC(=O)c1ccc2c(c1)OCO2,–,inactive: 5.72%
COc1ccc2sc3ccccc3c(=O)c2c1,"inconclusive: 17.8 µM [inhibitor, partial curve]",–
CCOC(=O)Cc1ccc(NC(=O)NC(C)c2c(-n3cccc3)sc(C)c2C)cc1 (centres undefined),–,inactive: -5.08%
Cc1ccc(C)c(SCC(=O)OC/C(O)=C(\C#N)c2nc3ccccc3[nH]2)c1,"inconclusive: 12.6 µM [inhibitor, partial curve, poor fit]",–
Cc1cc2nc(N3C(=O)CNC3=S)sc2cc1C,"inconclusive: 1.58 µM [inhibitor, full curve]",–
